In PubChem BioAssay AID1768 (National Center for Advancing Translational Sciences (NCATS), 2009):
Out of some 270,000 compounds screened, about 620 (0.23%) were called active. Inconclusive results, whose numbers are uncertain, are shown with a selection of clear calls. Calls follow the shape of the dose curve; as a rule, active = well fitted inhibition curve with a large enough effect in the polarisation, with a control signal flat (not every such curve was filed as active); inconclusive = small, poorly fitted or top-dose-only effect, or effect the other way, or a change in a side signal; inactive = no such curve, though single readings can be large or run the other way; the % refers to the polarisation. A potency beside an inconclusive call is a rough fit, not a confirmed value. “Side channel” marks fits to a control or component signal instead of the main read-out.

Biological target: Menin (Homo sapiens) (UniProt O00255)
Sequence of UniProt O00255 (O00255 whole entry, looked up): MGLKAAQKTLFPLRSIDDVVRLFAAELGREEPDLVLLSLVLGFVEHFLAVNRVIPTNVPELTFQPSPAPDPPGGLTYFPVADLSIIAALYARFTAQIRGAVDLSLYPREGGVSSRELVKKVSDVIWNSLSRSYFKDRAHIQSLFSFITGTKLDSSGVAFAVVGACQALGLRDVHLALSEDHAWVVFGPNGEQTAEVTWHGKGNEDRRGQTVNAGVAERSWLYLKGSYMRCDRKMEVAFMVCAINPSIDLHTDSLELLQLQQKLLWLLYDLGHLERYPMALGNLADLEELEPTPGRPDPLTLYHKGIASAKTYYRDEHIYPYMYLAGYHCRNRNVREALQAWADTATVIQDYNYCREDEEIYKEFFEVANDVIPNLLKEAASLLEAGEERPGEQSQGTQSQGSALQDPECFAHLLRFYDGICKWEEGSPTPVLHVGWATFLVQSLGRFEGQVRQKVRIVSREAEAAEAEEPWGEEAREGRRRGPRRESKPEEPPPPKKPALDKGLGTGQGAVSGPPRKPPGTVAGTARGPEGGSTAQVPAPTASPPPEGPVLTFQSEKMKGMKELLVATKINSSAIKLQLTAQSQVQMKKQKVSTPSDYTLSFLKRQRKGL
Assay: qHTS Assay for Inhibitors Targeting the Menin-MLL Interaction in MLL Related Leukemias: Competition With Texas Red Labeled MLL-derived Mutant Peptide
Conditions: fluorescence polarization; series mostly up to 61.6 µM
Potency is read from the fitted curve at half-maximal effect; tags tell the direction and shape of the fitted curve or compound fluorescence and quenching.

Row | SMILES | Potency
1 | Nc1c2c(nc3ccccc13)N(C1CCCCC1)CC2 | inactive
2 | CC(=O)Nc1ccc(Nc2nc(C(F)(F)F)nc3c2nnn3Cc2ccccc2Cl)cc1 | inconclusive: 15.8 µM [quencher, side channel, partial curve]
3 | Cc1ccc(C)c(N2CCN(C(=O)c3ccc(N4CCCC4=O)cc3)CC2)c1 | inconclusive: 12.6 µM [inhibitor, partial curve]
4 | C=CCOc1c2ccc(C(=O)NCc3ccc(OC)cc3)cc2nn1C | inconclusive: 20 µM [inhibitor, partial curve]
5 | COc1ccc(Cl)cc1NC(=O)Cn1c(=O)oc2ccccc21 | inconclusive: 39.8 µM [fluorescent, side channel, single point]
6 | O=C(/C=C/c1ccccc1)c1ccc2c(c1)OCCCCO2 | inconclusive: 39.8 µM [fluorescent, side channel, single point]
7 | O=C(CSc1nc2ccccc2o1)Nc1ccc(N2CCOCC2)c(Cl)c1 | inconclusive: 22.4 µM [quencher, side channel, partial curve]
8 | O=[N+]([O-])c1ncccc1OCc1ccc(-c2ccccc2)cc1 | inconclusive: 1.41 µM [quencher, side channel, full curve]
9 | C/C(=N\Nc1nc(-c2ccc(C)cc2C)cs1)c1cc2ccccc2oc1=O | inconclusive: 17.8 µM [quencher, side channel, partial curve]
10 | CCOC(=O)/C=C1\SCC(=O)N1CC(=O)c1ccc[nH]1 | inconclusive: 28.2 µM [quencher, side channel, partial curve]
11 | O=c1cc(O)nc(-c2ccccc2)s1 | inconclusive: 22.4 µM [inhibitor, partial curve]
12 | Cc1ccc(NC(=S)c2nc3ccccc3[nH]2)c(C)c1 | inconclusive: 25.1 µM [quencher, side channel, single point]
13 | Cc1[nH]c2ccc(CNS(=O)(=O)c3ccc(S(=O)(=O)N4CCOCC4)cc3)cc2c1C | inconclusive: 28.2 µM [quencher, side channel, single point]
14 | COc1cccc(/C=C/C(=O)OCC(=O)c2c[nH]c3ccccc23)c1OC | inconclusive: 11.2 µM [quencher, side channel, partial curve]
15 | O=[N+]([O-])c1ccc(Cl)c(C2Nc3cccc4cccc(c34)N2)c1 | inconclusive: 11.2 µM [quencher, side channel, partial curve]
16 | O=C(Nc1cccnc1)c1ccc(Cl)c(S(=O)(=O)N2CCCCC2)c1 | inconclusive: 1.26 µM [quencher, side channel, full curve, poor fit]
17 | CCc1ccc(CN(C)C(=O)c2cc(=O)c3ccccc3o2)cc1 | inconclusive: 31.6 µM [inhibitor, single point]
18 | Oc1ccccc1C1NN=C(c2ccccc2)S1 (centres undefined) | inconclusive: 8.91 µM [quencher, side channel, partial curve]
19 | CCNc1sc(C(=O)c2cccs2)c(N)c1-c1nc2ccccc2s1 | inconclusive: 14.1 µM [quencher, side channel, partial curve]
20 | O=C(CNc1ccc2ccccc2c1)N/N=C/c1ccc(C(=O)O)cc1 | inconclusive: 35.5 µM [quencher, side channel, single point]
21 | O=C(Nc1cc(S(=O)(=O)N2CCCCC2)ccc1Cl)c1ccccc1NS(=O)(=O)c1ccc(F)cc1 | inconclusive: 10 µM [quencher, side channel, partial curve]
22 | O=C(Oc1cccc2c(O)cccc12)c1ccccc1 | inconclusive: 20 µM [quencher, side channel, partial curve]
23 | C=C1CCC[C@]2(C)C[C@H]3OC(=O)C(CNCC(OC)OC)[C@H]3CC12 (some centres undefined) | inconclusive: 28.2 µM [fluorescent, side channel, partial curve]
24 | Cc1cccc(/N=C/c2nc(-c3ccccc3Br)oc2O)n1 | inconclusive: 28.2 µM [quencher, side channel, single point]
25 | O=C(N/N=C/c1cc([N+](=O)[O-])ccc1O)c1ccc(COc2ccc3c(c2)CCC3)o1 | inconclusive: 2.82 µM [quencher, side channel, full curve]
26 | O=C(NNC(=S)Nc1ccc(Cl)cc1)c1cccs1 | inconclusive: 25.1 µM [quencher, side channel, single point]
27 | CCN1CCN(CCNC(=O)c2ccc(/C=C3/Sc4ccccc4N(Cc4ccccc4C)C3=O)cc2)CC1 | inconclusive: 3.55 µM [fluorescent, side channel, full curve]

Row | SMILES | Potency
28 | Cc1cc2cc(CNC(=O)NC3CCCCC3)ccc2n1C | inconclusive: 28.2 µM [fluorescent, side channel, single point]
29 | CC(C)CC(=O)NC(=S)Nc1nc(-c2ccc(Cl)cc2)cs1 | inconclusive: 28.2 µM [quencher, side channel, partial curve]
30 | Cc1ccccc1-c1cc(C(=O)N2CCCC2)c2ccccc2n1 | inconclusive: 28.2 µM [quencher, side channel, single point]
31 | O=C(NN1C(=O)c2ccccc2NC1c1ccc([N+](=O)[O-])o1)c1ccc(Br)cc1 (centres undefined) | inconclusive: 28.2 µM [quencher, side channel, partial curve]
32 | Cc1nn(CCCC(=O)Nc2cc(Oc3ccc(F)cc3)cc([N+](=O)[O-])c2)c(C)c1[N+](=O)[O-] | inconclusive: 7.94 µM [quencher, side channel, full curve]
33 | CC[C@@H](C)C(NC(=O)OC(C)(C)C)c1cn([C@@H](CCC(=O)OC(C)(C)C)C(=O)N2CCN(C(=O)OC(C)(C)C)CC2)nn1 (some centres undefined) | inconclusive: 2.24 µM [fluorescent, side channel, partial curve]
34 | O=C1S/C(=C\C=C\c2ccco2)C(=O)N1c1ccc(O)cc1 | inconclusive: 6.31 µM [quencher, side channel, single point]
35 | COC(=O)c1ccc(NC(=O)C2CCCN(S(C)(=O)=O)C2)cc1 (centres undefined) | inconclusive: 10 µM [inhibitor, partial curve]
36 | CCCCc1nc(SCC(=O)N2CCCC2)c2c(=O)n(C)c(=O)n(C)c2n1 | inconclusive: 3.55 µM [fluorescent, side channel, full curve, poor fit]
37 | COc1ccc(-c2noc(COc3ccc4ccccc4c3Br)n2)cc1OC | inconclusive: 39.8 µM [fluorescent, side channel, single point]
38 | N#CCc1nn(-c2ccc(Cl)cc2)c(N)c1C#N | inconclusive: 31.6 µM [quencher, side channel, single point]
39 | COc1ccc(-c2cc3ccccc3nc2N)cc1OC | inconclusive: 22.4 µM [inhibitor, partial curve, poor fit]
40 | O=C(N/N=C1\C2CN3CCN(C2)CC1(c1ccccc1)C3)c1ccc(F)cc1 | inactive
41 | O=C(O)c1cccnc1SCC(=O)N1CCCCCC1 | inconclusive: 3.98 µM [fluorescent, side channel, single point]
42 | O=C(CSc1ccc(Cl)cc1)N/N=C/c1ccc([N+](=O)[O-])o1 | inconclusive: 25.1 µM [quencher, side channel, partial curve]
43 | O=C(Nc1ccc2c(c1)OCO2)C1CCN(S(=O)(=O)c2ccc3c(c2)OCCO3)CC1 | inconclusive: 31.6 µM [quencher, side channel, single point]
44 | Cc1cc(C)n(CC(C)NC(=O)CCc2nnc(CCc3ccccc3)o2)n1 (centres undefined) | inconclusive: 4.47 µM [fluorescent, side channel, full curve, poor fit]
45 | O=C(C1=C[C@@H](C2CCCCC2)C[C@@H](OCCCCO)O1)N1CCN(Cc2ccccc2)CC1 | inconclusive: 2 µM [fluorescent, side channel, full curve]
46 | COc1cc(C(=O)Nc2sc3c(c2C(=O)O)CCC(C)C3)cc(OC)c1OC (centres undefined) | inconclusive: 28.2 µM [quencher, side channel, partial curve]
47 | NC(=O)c1ccc(-n2nnnc2SCC(=O)c2ccc(O)c(O)c2)cc1 | inconclusive: 17.8 µM [quencher, side channel, partial curve]
48 | Cc1ccc(S(=O)(=O)c2nc(Nc3nccs3)sc2Cl)cc1 | inconclusive: 35.5 µM [quencher, side channel, single point]
49 | CC(C)(C)OC(=O)N1Cc2ccccc2C[C@H]1C(=O)N1CCC[C@H]1C(=O)O | inconclusive: 1.12 µM [inhibitor, partial curve]
50 | COc1ccc(C(CNC(=O)c2cc3ccccc3o2)N2CCCCC2)cc1 (centres undefined) | inconclusive: 25.1 µM [fluorescent, side channel, single point]
51 | CC(=O)C1(O)Cc2c(O)c3c(c(O)c2C(OC2CC(N)C(O)C(C)O2)C1)C(=O)c1c(O)cccc1C3=O (centres undefined) | inconclusive: 25.1 µM [fluorescent, side channel, partial curve]
52 | Oc1ccc(N=Nc2ccccc2C(F)(F)F)c2cccnc12 | inconclusive: 7.94 µM [quencher, side channel, partial curve]
53 | C=CCOc1ccccc1/C=N/NC(=O)Cc1ccccc1 | inconclusive: 39.8 µM [inhibitor, single point]
54 | COC(=O)Nc1ccc(OCc2ccccc2)cc1 | inactive
